Test results as given in patent publication US20140024677A1, “METHODS FOR INDUCING MITOCHONDRIAL BIOGENESIS” (MUSC Foundation For Research Development, priority 2012, published 2014).
Where two headings read alike, the source gives them in different places.

Experiments:
[1] = test system: primary renal proximal tubule cells (RPTC); conditions: for Concentration of maximal effect on FCCP-OCR: 10-3000 nM; for Effect on FCCP-OCR in concentration response: 10-3000 nM (below 5 μM); for Average uncoupled OCR ratio: 5 μM, LOPAC compounds
[2] = test system: primary renal proximal tubule cells (RPTC); conditions: cited from earlier work
[3] = test system: primary renal proximal tubule cells (RPTC); assay: cells; conditions: Oryctolagus cuniculus, 24 h, read-out: Average Drug FCCP OCR/Control FCCP OCR
[4] = RPTC, 10-3,000 nM, 24 h, MB = ratio to vehicle >1.15
[5] = RPTC, 24 hr, fold change in FCCP-OCR relative to DMSO controls
[6] = RPTC, 24 hr, formoterol 30 nM, isoproterenol 10, 100, 1000 nM, BRL 37344 100, 300, 1000 nM, catecholamines 30 and 100 nM

In the case of `C[C@H](Cc1ccc(OCC(=O)O)cc1)NC[C@H](O)c1cccc(Cl)c1.O.[Na]` (relative stereo) [BRL 37344, (±)-(R*,R*)-[4-[2-[[2-(3-Chlorophenyl)-2-hydroxyethyl]amino]propyl]phenoxy]acetic acid sodium hydrate], the “Change in FCCP-OCR relative to vehicle control” value [1] is given as “No significant changes” and the “MB activity previously reported (Wills et al. 2012)” value [2] is given as “inactive”.

For `CC(C)(C)CC(C)(C)NCC(O)COCc1ccccc1` (stereo not drawn) [CB_1-5144510], the fold induction at 5 µM [3] was 1.19 ± 0.08.

For `Cc1cc(C)c(OCC(O)CN2CCCCC2)c(C)c1` (stereo not drawn) [CB_2-5144525], the “MB at 30 nM in concentration response curve” value ([1]; RPTC) was “increased MB”, the “Concentration of maximal effect on FCCP-OCR” value ([1]; RPTC, 24 h) was 30 nM and the “Effect on FCCP-OCR in concentration response” value ([1]; RPTC, 24 h) was “significant and concentration-responsive increases”. For the same compound, the fold induction at 5 µM [3] was 1.22 ± 0.08.

For `COC(=O)c1ccc(NC(=O)CCN2CCCCC2)cc1` [CB_3-6431725], the “MB at 30 nM in concentration response curve” value ([1]; RPTC) was “increased MB”, the “MB concentration-response phenotype (FCCP-OCR)” value [1, 4] was “promoted full MB” and the “Concentration of maximal effect on FCCP-OCR” value ([1]; RPTC, 24 h) was 100 nM. For the same compound, the “Effect on FCCP-OCR in concentration response” value ([1]; RPTC, 24 h) was “significant and concentration-responsive increases” and the fold induction at 5 µM [3] was 1.22 ± 0.04.

In the case of `COC(=O)[C@@H](N)Cc1ccc(O)c(O)c1` [L-3,4- Dihydroxyphenylalanine methyl ester], the “Average uncoupled OCR ratio” value [1, 5] is reported as 0.95 ± 0.07.

For `CC(C)NCC(O)c1cc(O)cc(O)c1` (stereo not drawn) [Metaproterenol], the “Average uncoupled OCR ratio” value [1, 5] was 1.02 ± 0.06 and the “MB concentration-response phenotype (FCCP-OCR)” value [1, 4] was “very potent at low concentrations but were not MB as concentrations increased”.

In the case of `CNCCc1ccc(O)c(O)c1` [N-Methyldopamine], the “Average uncoupled OCR ratio” value [1, 5] is reported as 0.82 ± 0.13.

In the case of `CCCCCCCC/C=C\CCCCCCCC(=O)NCCc1ccc(O)c(O)c1` [N-Oleoyldopamine], the “Average uncoupled OCR ratio” value [1, 5] is reported as 0.9 ± 0.09.

In the case of `CCCCCCCC/C=C\CCCCCCCC(=O)NCc1ccc(O)c(OC)c1` [Olvanil], the “Average uncoupled OCR ratio” value ([1]; RPTC, 24 hr, […]) is reported as 1.12 ± 0.08.

For `CC(C)(C)NCC(O)c1ccc(O)c(CO)c1` (stereo not drawn) [Salbutamol], the “MB concentration-response phenotype (FCCP-OCR)” value [1, 4] was “inactive at stimulating MB”.

With `CC(C)(C)NCC(O)c1cc(Cl)c(N)c(Cl)c1` (stereo not drawn) [clenbuterol] the “MB concentration-response phenotype (FCCP-OCR)” value [1] was “had no effect on MB”.

Compound `CC(C)OC(=O)C(N)Cc1ccccc1` (stereo not drawn) [compound 5108436] has a fold induction at 5 µM [3] of 1 ± 0.11.

`Cc1cc(C)c(OCC(O)CNC(C)(C)CC(C)(C)C)c(C)c1` (stereo not drawn) [compound 5144511] showed a fold induction at 5 µM [3] of 1.08 ± 0.06.

For `CN1CCCC(C(=O)c2ccccc2)C1` (stereo not drawn) [compound 5244600], the fold induction at 5 µM [3] was 0.92 ± 0.1.

With `O=C(OC[C@@H]1CCCN2CCCC[C@H]12)c1cccc(Br)c1` [compound 5402373] the fold induction at 5 µM [3] was 1.14 ± 0.05.

For `Cc1cccc(C(=O)OC[C@@H]2CCCN3CCCC[C@H]23)c1` [compound 5402374], the fold induction at 5 µM [3] was 0.94 ± 0.04.

Compound `CN(C)CC/C(=N\O)c1ccccc1` [compound 5533967] has a fold induction at 5 µM [3] of 0.99 ± 0.07.

In the case of `Cn1ccnc1SCC(=O)c1ccccc1` [compound 6111462], the fold induction at 5 µM [3] is reported as 0.89 ± 0.04.

For `CC1=CS(=O)(=O)CC1Sc1nc(C)n[nH]1` (stereo not drawn) [compound 6384391], the fold induction at 5 µM [3] was 1.14 ± 0.08.

For `O=C(CCN1CCCCC1)c1ccc(O)cc1` [compound 6433097], the fold induction at 5 µM [3] was 1.09 ± 0.06.

With `O=C(CCN1CCCCC1)Nc1cccc(Cl)c1` [compound 6434119] the fold induction at 5 µM [3] was 1.09 ± 0.03.

For `O=C(CCN1CCOCC1)Nc1ccc(Cl)cc1` [compound 6435349], the fold induction at 5 µM [3] was 1.01 ± 0.05.

Compound `CCc1ccc(OCC(=O)c2ccc(O)c(CN(C)C)c2O)cc1` [compound 6632718] has a fold induction at 5 µM [3] of 1 ± 0.05.

Work on `O=C(O)CC1NCCc2ccccc21` (stereo not drawn) [compound 7562564] yielded a fold induction at 5 µM [3] of 0.85 ± 0.04.

With `CCC(NC1CCCC1)C(O)c1ccc(O)c(O)c1` (stereo not drawn) [cyclopentylbutanepharine] the “MB concentration-response phenotype (FCCP-OCR)” value [1, 4] was “very potent at low concentrations but were not MB as concentrations increased”.

For `CCC(NC(C)C)C(O)c1ccc(O)c(O)c1` (stereo not drawn) [isoetharine], the “MB concentration-response phenotype (FCCP-OCR)” value [1, 4] was “had no effect on MB”.

With `CC(C)NC[C@H](O)c1ccc(O)c(O)c1.Cl` [isoproterenol, (R)-3,4-Dihydroxy-α-(isopropylaminomethyl)benzyl alcohol hydrochloride] the “MB concentration-response phenotype (FCCP-OCR)” value [1, 4] was “had no effect on MB” and the “Change in FCCP-OCR relative to vehicle control” value [1, 6] was “No significant changes”.

In the case of `NC[C@H](O)c1ccc(O)c(O)c1` [norepinephrine], the “Change in FCCP-OCR relative to vehicle control” value [1, 6] is given as “No significant changes” and the “MB activity previously reported (Wills et al. 2012)” value [2] is given as “not stimulate MB”.

In the case of `CCC(NC(C)C)C(O)c1ccc(O)c2[nH]c(=O)ccc12` [procaterol, (±)-(1R,2S)-rel-8-Hydroxy-5-[1-hydroxy-2-(isopropylamino)butyl]-quinolin-2(1H)-one], the “MB concentration-response phenotype (FCCP-OCR)” value [1, 4] is reported as “very potent, had Michaelis-Menten type concentration-response curves”.

In the case of `OCc1cc(C(O)CNCCCCCCOCCCCc2ccccc2)ccc1O` (stereo not drawn) [salmeterol], the “MB concentration-response phenotype (FCCP-OCR)” value [1, 4] is reported as “inactive at stimulating MB”.

In the case of `CC(C)(C)NCC(O)c1cc(O)cc(O)c1` (stereo not drawn) [terbutaline], the “MB concentration-response phenotype (FCCP-OCR)” value [1, 4] is reported as “very potent at low concentrations but were not MB as concentrations increased”.

For (±)-Atenolol, the “Average uncoupled OCR ratio” value [1, 5] was 0.92 ± 0.15.

In the case of (±)-Normetanephrine, the “Average uncoupled OCR ratio” value ([1]; RPTC, 24 hr, […]) is reported as 1.06 ± 0.03.

For Bromoacetyl alprenolol menthane, the “Average uncoupled OCR ratio” value ([1]; RPTC, 24 hr, […]) was 0.68 ± 0.2.

With Carvedilol the “Average uncoupled OCR ratio” value [1, 5] was 1.09 ± 0.03.

With Dobutamine the “Average uncoupled OCR ratio” value [1, 5] was 1.09 ± 0.14.

In the case of GR 55562, the “Average uncoupled OCR ratio” value ([1]; RPTC, 24 hr, […]) is reported as 1.09 ± 0.09.

For Labetalol, the “Average uncoupled OCR ratio” value [1, 5] was 0.86 ± 0.11.

In the case of Mitoxantrone, the “Average uncoupled OCR ratio” value [1, 5] is reported as 1.1 ± 0.06.

With Ranolazine the “Average uncoupled OCR ratio” value [1, 5] was 1.03 ± 0.03.

With Ritodrine the “Average uncoupled OCR ratio” value [1, 5] was 1.02 ± 0.09 and the “MB concentration-response phenotype (FCCP-OCR)” value [1, 4] was “very potent at low concentrations but were not MB as concentrations increased”.

In the case of SR 59230A, the “Average uncoupled OCR ratio” value ([1]; RPTC, 24 hr, […]) is reported as 1.09 ± 0.07.
